In the experiment the target is T1, GroEL chaperonin ( (purified from Escherichia …, UniProt P0A6F5)).
T1 construct: GroEL chaperonin, purified from Escherichia coli cells (HB101 strain) after expression of the plasmid pGroE4
Nature of the experiment: fluorescence polarisation; 30×10^-9 M denatured fluorescein-labeled pepsin titrated with GroEL in 20 mM Tris–HCl, pH 7.5, 10 mM MgCl2, 600 mM NaCl; apparent constant, counted on GroEL cavities. The note with it: both partners purified.

B1: fluorescein-labeled pepsin from porcine gastric mucosa (enzyme, UniProt P00791 60-385, looked up)
chain: IGDEPLENYLDTEYFGTIGIGTPAQDFTVIFDTGSSNLWVPSVYCSSLACSDHNQFNPDDSSTFEATSQELSITYGTGSMTGILGYDTVQVGGISDTNQIFGLSETEPGSFLYYAPFDGILGLAYPSISASGATPVFDNLWDQGLVSQDLFSVYLSSNDDSGSVVLLGGIDSSYYTGSLNWVPVSVEGYWQITLDSITMDGETIACSGGCQAIVDTGTSLLTGPTSAIANIQSDIGASENSDGEMVISCSSIDSLPDIVFTINGVQYPLSPSAYILQDDDSCTSGFEGMDVPTSSGELWILGDVFIRQYYTVFDRANNKVGLAPVA
modifications: fluorescein label (fluorescein isothiocyanate), position not stated
notes: Pepsin from porcine gastric mucosa; also called denatured pepsin; source: bought: Sigma (USA), used without additional purification; labelled with fluorescein isothiocyanate, PD-10 and MonoQ
In the case of B1, the Kd came out at 9.7 nM.

Source of the values: PMC4735476, “Dataset concerning GroEL chaperonin interaction with proteins” (Data in Brief, 2016).
